“And” between values parts separate entries of the source, which are not always exact repeats. Identical values can stand only once. Out of some 420,000 compounds screened, about 50,000 (12%) were called active. Inconclusive results, whose numbers are uncertain, are shown with a selection of clear calls. Calls follow the shape of the dose curve; as a rule, active = well fitted inhibition curve with a large enough effect; inconclusive = small, poorly fitted or top-dose-only effect; inactive = flat fitted curve, though single readings scatter. Potencies of inconclusive entries are doubtful fits and often do not repeat.
Test: qHTS for Inhibitors of human tyrosyl-DNA phosphodiesterase 1 (TDP1): qHTS in cells in presence of CPT; also: nearly all actives have a fitted effect of over 55% in size
Details: chicken DT40 Tdp1-/-;hTDP1 cells + 20 nM CPT, ATP luminescence, 48 h; activity change, negative = growth inhibition: at 46.2 µM (top of the series)
Outline: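 Cell growth measured by CellTiter-Glo luminescence after a minimum 48 h, 37 C compound exposure with 20 nM CPT in Tdp1-knockout DT40 cells stably expressing hTDP1, seeded 400/well; qHTS titration format.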
In the case of `CC1(Cc2cccc(F)c2)C(=O)Nc2ccc(-c3cccnc3)cc21` (configuration not stated), the Potency is reported as active: 11.6 µM.
With `O=C(c1ccccc1)c1ccc(OC(=O)N2CCCC2)cc1` the Potency was inconclusive: 29.1 µM [inhibitor, single point].
With `O=C(OCCOCCN=C1NS(=O)(=O)c2ccccc21)c1ccccc1Br` the “activity change, negative = growth inhibition” value was inactive: -2.04%.
With `CCN(Cc1ccccc1)C(=O)Cn1c(=O)cc(C)c2c(C)nn(-c3cccc(F)c3)c21` the Potency was active: 18.4 µM.
For `CSCCC(NC(=O)OCc1ccccc1)C(=O)O` (configuration not stated), the “activity change, negative = growth inhibition” value was inactive: -2.17%.
In the case of `O=C(CSc1oc(-c2ccc(F)cc2)nc1S(=O)(=O)c1ccccc1)c1ccc(Cl)cc1`, the Potency is reported as active: 10.3 µM.
In the case of `O=C(C(c1ccccc1)c1ccccc1)N1CCN(c2ccccn2)CC1`, the Potency is reported as inconclusive: 5.8 µM [inhibitor, single point].
In the case of `Cc1cccc(C)c1-n1c(C)cc(/C=N\Nc2ccc([N+](=O)[O-])cn2)c1C`, the Potency is reported as inconclusive: 29.1 µM [inhibitor, single point].
In the case of `Cc1cccc2cc(CN(Cc3ccc(F)cc3)C(=O)N(C)C)c3nnnn3c12`, the Potency is reported as active: 23.1 µM.
For `CC(=O)c1cccc(S(=O)(=O)N(Cc2cc3cc4c(cc3[nH]c2=O)OCCO4)CC2CCCO2)c1` (configuration not stated), the Potency was inconclusive: 8.2 µM [inhibitor, partial curve].
For `CCOC(=O)c1sc(NC(=O)/C=C/c2cnn(CC)c2C)c(C(=O)OCC)c1C`, the Potency was inconclusive: 20.6 µM [inhibitor, single point].
With `CCc1ccc2occ(CC(=O)Nc3nnc(SC)s3)c2c1` the “activity change, negative = growth inhibition” value was inactive: -18%.
In the case of `CCC1CCCCN1S(=O)(=O)c1ccc(C(=O)Nc2nnc(-c3ccccc3Cl)o2)cc1` (configuration not stated), the Potency is reported as active: 5.17 µM.
In the case of `CCN1C(=O)c2ccccc2S(=O)(=O)c2ccc(C(=O)NCc3ccc(C)cc3)cc21`, the Potency is reported as inconclusive: 18.4 µM [inhibitor, single point].
With `COC(=O)C1=C(C)N(Cc2ccccc2)C(=S)N[C@H]1c1cccc(C(F)(F)F)c1` the Potency was inconclusive: 20.6 µM [inhibitor, single point].
With `CC(=O)n1nc(-c2ccccc2)nc1NCc1ccc(N(C)C)cc1` the “activity change, negative = growth inhibition” value was inactive: 11.6%.
In the case of `COc1cccc(-c2cc(C(=O)Nc3cccnc3)no2)c1`, the Potency is reported as active: 20.6 µM.
In the case of `COc1ccc(NC(=O)c2ccco2)cc1NC(=O)c1ccccc1`, the “activity change, negative = growth inhibition” value is reported as inactive: -23.2%.
In the case of `NS(=O)(=O)c1ccc(CNc2nc(-c3cccnc3)nc3ccccc23)cc1`, the Potency is reported as inconclusive: 29.1 µM [inhibitor, single point].
With `Cc1cccc(C)c1NC(=O)CNC(=O)Cc1c[nH]c2ccccc12` the “activity change, negative = growth inhibition” value was inactive: -4.32%.
With `O=C(C[n+]1ccccc1Br)c1ccc2c(c1)CCCC2` the Potency was inconclusive: 22.4 µM [inhibitor, single point].
For `COc1ccc(O)c(C(=O)c2cnc3c(c2)c(C)nn3C)c1`, the Potency was inconclusive: 18.4 µM [inhibitor, partial curve].
With `O=C(O)c1ccc(Nc2ncnc3scc(-c4ccccc4)c23)cc1` the Potency was active: 10.3 µM and active: 2.59 µM.
With `CC(C)c1cc(CN2C(C)COCC2C)cc(C(C)C)c1O` (configuration not stated) the Potency was active: 20.6 µM.
In the case of `CCOC(=O)c1[nH]c(C)c(CCC(=O)N2CCN(c3ccc(Cl)cc3)CC2)c1C`, the Potency is reported as inconclusive: 23.1 µM [inhibitor, single point].
For `CCS(=O)(=O)c1nc(S(=O)(=O)c2ccc(Cl)cc2)c(NCc2ccc(Cl)cc2)s1`, the Potency was inconclusive: 23.1 µM [inhibitor, partial curve, poor fit].
For `Cc1ccc(-c2nnn(CC(=O)N(CCCO)C(C(=O)NC3CCCC3)c3ccc(F)cc3)n2)o1` (configuration not stated), the “activity change, negative = growth inhibition” value was inactive: -13.4%.
In the case of `CCCCn1c(N)c(N(CCC(C)C)C(=O)c2cc(-c3ccco3)nc3ccccc23)c(=O)[nH]c1=O`, the “activity change, negative = growth inhibition” value is reported as inactive: -28.5%.
In the case of `COc1ccc(Cc2c(C)nn(-c3nc(C)c(C(=O)Nc4cccc(C(C)=O)c4)s3)c2C)cc1`, the Potency is reported as active: 9.2 µM.
For `O=C(C#Cc1ccccc1)Nc1ccc(F)cc1`, the Potency was inconclusive: 29.1 µM [inhibitor, single point].
With `COc1ccc(-c2sc(C(=O)c3ccc(Cl)cc3Cl)cc2CC(=O)O)cc1` the Potency was inconclusive: 18.4 µM [inhibitor, single point].
In the case of `CC1(C)NC(=O)N(CC(O)CN2C(=O)NC(C)(C)C2=O)C1=O`, the “activity change, negative = growth inhibition” value is reported as inactive: -3.05%.
For `Clc1cccc(Cl)c1C1Nc2cccc3cccc(c23)N1`, the Potency was inconclusive: 29.1 µM [inhibitor, single point].
For `CCc1ccc2nc(N(Cc3cccnc3)C(=O)Cc3ccccc3)sc2c1`, the Potency was inconclusive: 32.6 µM [inhibitor, partial curve, poor fit].
With `CC1(C(=O)Nc2ccc3c(c2)OCCO3)CCN1Cc1ccc2ccccc2c1` (configuration not stated) the Potency was inconclusive: 29.1 µM [inhibitor, single point].
With `Cc1cc2c(OCC(CNC(C)(C)C)OC(=O)c3ccccc3)cccc2[nH]1` (configuration not stated) the Potency was inconclusive: 18.8 µM [inhibitor, single point].
With `CC(C)C[C@@]12C(=O)N(c3cccc(Cl)c3)C(=O)N1[C@H](c1ccc(Br)cc1)[C@@H]1C(=O)N(C(C)(C)C)C(=O)[C@@H]12` the Potency was inconclusive: 14.6 µM [inhibitor, partial curve].
For `CCC(C(=O)NCc1ccccc1Cl)n1c(=O)c2cccn2c2ccccc21` (configuration not stated), the Potency was inconclusive: 18.4 µM [inhibitor, single point].
With `Cc1ccc(NN=C2C(=O)OC(C)(C)OC2=O)c(C)c1` the “activity change, negative = growth inhibition” value was inactive: 1.15%.
With `O=[N+]([O-])c1c(NCCCO)cc(Sc2nc3ccccc3s2)c2nonc12` the Potency was active: 1.26 µM.
For `Cn1c(CNc2cccc(C(F)(F)F)c2)n[nH]c1=S`, the Potency was inconclusive: 29.1 µM [inhibitor, single point].
In the case of `O=C(O)CC1(CC(=O)Nc2ccc3c(c2)OCCCO3)CCCCC1`, the “activity change, negative = growth inhibition” value is reported as inactive: 15.5%.
For `COc1ccc(NC(=O)COc2ccc(C(=O)OCC(=O)N(C(C)C)C(C)C)cc2OC)cc1`, the Potency was inconclusive: 29.1 µM [inhibitor, single point].
With `C#CCNCCS(=O)(=O)N(Cc1ccc(Br)cc1)[C@@H](CC(C)C)C(=O)O` the “activity change, negative = growth inhibition” value was inactive: -4.18%.
In the case of `Cn1nc(-c2ccc(F)cc2)nc2c(=O)n(C)c(=O)nc1-2`, the Potency is reported as active: 0.447 µM.
For `O=C(NCc1ccccc1)c1c2c(nc3ccccc13)C(=O)N(C1CCCCC1)C2`, the Potency was active: 16.4 µM.
In the case of `CCc1c(C)nc(SCC(=O)N2CCN(c3ccccc3)CC2)[nH]c1=O`, the “activity change, negative = growth inhibition” value is reported as inactive: -0.887%.
With `COc1ccc(OC)c2[nH]c(=O)c(CCNS(=O)(=O)c3ccc(C)cc3)cc12` the “activity change, negative = growth inhibition” value was inactive: 3.29%.
In the case of `CCOc1ccc2oc(C(=O)N(C)CC(=O)Nc3ccc(OCC)c(OCC)c3)c(C)c2c1`, the Potency is reported as inconclusive: 23.1 µM [inhibitor, partial curve, poor fit].
With `COc1ccccc1CC(O)CC1c2c(cc3c(c2OC)OCO3)CCN1C` (configuration not stated) the Potency was active: 11.6 µM.
For `CCc1ccccc1N1C(=O)N(Cc2cc(=O)n3ccccc3n2)c2ccccc2S1(=O)=O`, the Potency was active: 23.1 µM.
With `O=C(NCc1ccc2c(c1)OCO2)C1CC(=O)N(CCc2ccccc2)C1` (configuration not stated) the Potency was inconclusive: 11.6 µM [inhibitor, partial curve].
In the case of `CC(=O)Nc1ccc(NC(=O)c2cccc(S(=O)(=O)N(C)C3CCCCC3)c2)cc1`, the Potency is reported as inconclusive: 29.1 µM [inhibitor, single point].
For `C=C1C(=O)[C@]23C[C@H]1CCC2[C@]1(C)C(=O)CC[C@@](C)(C(=O)O)C1C[C@@H]3O` (some centres not stated), the Potency was active: 2.91 µM.
For `COc1ccc(N2CCN(c3ccc(NC(=O)c4ccc5c(c4)OCO5)cc3C#N)CC2)cc1`, the Potency was inconclusive: 25.9 µM [inhibitor, single point].
With `CCOc1ccc(CCNC(=O)COC(=O)C2=NNC(=O)CC2)cc1OCC` the “activity change, negative = growth inhibition” value was inactive: 6.15%.
For `Cc1ccc2c(c1)N(C(=O)c1ccc(F)cc1)C(C)(C)CC2(C)c1ccccc1` (configuration not stated), the Potency was inconclusive: 18.4 µM [inhibitor, single point].
For `Cc1ccccc1OCCC(=O)Nc1ccc(Cl)cc1F`, the “activity change, negative = growth inhibition” value was inactive: -17.7%.
In the case of `CC(=O)N1CCCc2cc(S(=O)(=O)Nc3ccc4c(c3)OCO4)ccc21`, the “activity change, negative = growth inhibition” value is reported as inactive: -20.6%.
With `Cc1cc(C)c(S(=O)(=O)c2cccc(Br)c2C)c(Cl)n1` the “activity change, negative = growth inhibition” value was inactive: -20.7%.
For `CC(=O)Nc1ccc(S(=O)(=O)Nc2cccc(NC(=O)c3ccco3)c2)cc1`, the activity change, negative = growth inhibition was inconclusive: -30.6% [inhibitor].
In the case of `CC1Cc2ccccc2N1C(=O)Cn1cnc2ccccc2c1=O` (configuration not stated), the Potency is reported as inconclusive: 25.9 µM [inhibitor, single point].
In the case of `Cc1ccc(NS(=O)(=O)c2cccc3cccnc23)c(Br)c1`, the “activity change, negative = growth inhibition” value is reported as inactive: 15.1%.
In the case of `COc1cccc(N/C(SCc2cccc([N+](=O)[O-])c2)=C(/C#N)C(N)=O)c1`, the Potency is reported as inconclusive: 29.1 µM [inhibitor, single point].
For `O=C(CC(=O)c1ccccc1)Nc1ccc(Cl)cc1`, the Potency was inconclusive: 18.4 µM [inhibitor, single point].
With `COc1ccc(S(=O)(=O)N(CCc2ccccc2)CC(=O)Nc2cc(Cl)ccc2C)cc1` the Potency was inconclusive: 18.4 µM [inhibitor, single point].
For `Cc1cc(C(Br)(Br)Br)nc2ccccc12`, the Potency was active: 2.51 µM.
With `C=CCc1cc(C)ccc1OCCOCCn1ccnc1` the activity change, negative = growth inhibition was inconclusive: -30.8% [inhibitor].
With `COc1ccccc1-c1ccc2ncnc(N3CCN(C)CC3)c2c1` the Potency was active: 9.2 µM.
In the case of `CC(=O)OC1CCC2(C)C3CCC4(C)C(C(C)=O)CCC4C3CC3OC32C1` (configuration not stated), the Potency is reported as inconclusive: 29.1 µM [inhibitor, partial curve].
With `CCCSc1nnc(NC(=O)c2cc(=O)c3ccccc3o2)s1` the “activity change, negative = growth inhibition” value was inactive: 1.38%.
With `O=C1CCN(Cc2ccccc2)S(=O)(=O)c2c(F)cc(F)cc21` the Potency was inconclusive: 20 µM [inhibitor, single point] and inconclusive: 29.1 µM [inhibitor, single point].

Reference: PubChem BioAssay AID686979 (National Center for Advancing Translational Sciences (NCATS), 2013)
% is scaled to controls: 0 for no effect and ±100 for the full control effect; potency is read from the fitted curve at half-maximal effect; tags tell the direction and shape of the fitted curve.
